Laboratory results from PubChem BioAssay AID588342 (National Center for Advancing Translational Sciences (NCATS), 2011).
Among all 360,000 compounds or so, about 25,000 (6.9%) were called active. Inconclusive means that the source gave no clear call. Such entries were picked first, then a sample of the others. The call rests on the fitted dose curve; in most records, active means well fitted inhibition curve with a large enough effect; inconclusive means small, poorly fitted or top-dose-only effect; inactive means flat fitted curve, though single readings scatter. Potencies of inconclusive entries are doubtful fits and often do not repeat.

Target: Luciferin 4-monooxygenase (Photinus pyralis) (UniProt P08659)
UniProt P08659, sequence (P08659 whole entry, looked up): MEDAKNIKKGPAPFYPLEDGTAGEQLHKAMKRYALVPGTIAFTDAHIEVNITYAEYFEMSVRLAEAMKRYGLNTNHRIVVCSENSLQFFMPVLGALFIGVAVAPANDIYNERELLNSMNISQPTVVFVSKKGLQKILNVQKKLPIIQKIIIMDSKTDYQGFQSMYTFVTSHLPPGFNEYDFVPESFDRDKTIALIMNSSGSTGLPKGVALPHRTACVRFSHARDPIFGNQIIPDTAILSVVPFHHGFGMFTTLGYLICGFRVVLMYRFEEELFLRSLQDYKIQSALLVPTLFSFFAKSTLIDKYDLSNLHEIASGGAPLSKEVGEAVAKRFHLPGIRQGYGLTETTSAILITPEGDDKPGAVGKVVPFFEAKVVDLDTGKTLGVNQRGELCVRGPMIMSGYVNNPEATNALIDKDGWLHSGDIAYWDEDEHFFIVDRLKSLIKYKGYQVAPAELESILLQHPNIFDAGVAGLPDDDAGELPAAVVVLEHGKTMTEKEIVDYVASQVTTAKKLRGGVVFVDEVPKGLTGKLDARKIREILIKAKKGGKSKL
Assay: qHTS profiling assay for firefly luciferase inhibitor/activator using purifed enzyme and Km concentrations of substrates (counterscreen for miR-21 project); further: nearly all actives have a fitted effect of over 55% in size;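 on activity change, negative = inhibition: plate controls were vehicle for no effect and reference inhibitor for full effect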
Settings: purified FLuc, luminescence inhibition; activity change, negative = inhibition: at 57.5 µM (top of the series)
Summary of the method: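 Purified P. pyralis luciferase (10nM final) with 10uM D-luciferin and 10uM ATP (Km levels) in 50mM Tris acetate pH 7.5, 10mM Mg acetate, 0.01% Tween-20, 0.05% BSA; qHTS 6-point titration, ~60 µM downward; luminescence read.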
Potency means the concentration at half of the fitted maximal effect; tags describe the fitted curve by direction and shape.

SMILES	Potency	activity change, negative = inhibition
O=[N+]([O-])c1ccc2nc(-c3ccc(OC(F)F)cc3)cn2c1	inconclusive: 2.69 µM [inhibitor, full curve]	
CCOC(=O)C1(CCOC)CCN(C(=O)c2ccc(CSC)o2)CC1		inactive: 1.99%
COc1ccc(C(OCC2CO2)c2ccc(OC)cc2)cc1 (configuration not stated)		inactive: -4.77%
Oc1ccccc1-c1nc2ccc(Cl)cn2c1Nc1ccc2c(c1)OCCO2		inactive: -18.4%
CCS(=O)(=O)N1CCc2cc(C(=O)Nc3cccc(NC(C)=O)c3)ccc21		inactive: 1.56%
COc1ccc(NS(=O)(=O)c2ccc(NC(=O)c3ccc(CN4CCOCC4)cc3)cc2)cc1		inactive: 5.46%
O=C(O)CN1C(=O)/C(=C\c2cn(-c3ccccc3)nc2-c2ccccc2)SC1=S	inconclusive: 37.9 µM [inhibitor, partial curve, poor fit]	
CC(=O)NC1=NC(=O)/C(=C/c2cc(C)n(-c3ccc(NC(C)=O)cc3)c2C)S1	active: 5.36 µM	
CN(Cc1nccn1C)C(=O)CC1C(=O)NCCN1CC(c1ccccc1)c1ccccc1 (configuration not stated)		inactive: 1.27%
Cn1c2ccsc2c2ncn(Cc3ccccc3F)c(=O)c21		inactive: -4.33%
O=C1N/C(=C/c2ccc(N3CCCC3)cc2)C(=O)N1c1ccccc1	inconclusive: 2.69 µM [inhibitor, full curve]	
Cc1cccc(N/C=C/c2onc(C)c2[N+](=O)[O-])c1	inconclusive: 1.69 µM [inhibitor, full curve]	
Nc1ccc(C(=O)N/N=C2\CCCc3c2[nH]c2ccccc32)cc1	inconclusive: 19 µM [inhibitor, single point]	
c1ccc(-c2cc(-c3nnc4n3N=C(c3ccc5ccccc5c3)CS4)[nH]n2)cc1	inconclusive: 1.9 µM [inhibitor, full curve]	
O=S(=O)(Nc1ccncc1Cl)c1ccc2ccccc2c1	inconclusive: 23.9 µM [inhibitor, single point]	
CC(C)CCNC(=O)NC(=O)COC(=O)C1CCN(S(=O)(=O)c2ccccc2F)CC1		inactive: 3.55%
COc1ccc(-c2cc(C(=O)Nc3ccc(C)c(N)c3)c3ccccc3n2)cc1	active: 5.36 µM	
COc1ccc(CNC(=O)C2=Cc3cccc(OC)c3OC2)cc1OC		inactive: 0.464%
COc1cccc(/C=C2/Oc3ccccc3N(CC(=O)NCC3CCCO3)C2=O)c1 (configuration not stated)	active: 9.53 µM	
O=C(Nc1ccc2c(c1)OCCO2)c1ccc(Cl)c(S(=O)(=O)N2CCCCC2)c1	active: 13.5 µM	
O=C(Cn1nnc(-c2ccccc2Cl)n1)N1CCCCC1	active: 16.9 µM	
N#C/C(=C/Nc1ccccc1)c1ccsc1	inconclusive: 26.9 µM [inhibitor, single point]	
COC(=O)c1c(NC(=O)CN2CCN(C(=O)c3ccco3)CC2)c2cc(C)ccc2n1C		inactive: 2.67%
Cc1ccc(NC(=O)c2sc3ncn(CC(=O)N4CCN(c5ccccn5)CC4)c(=O)c3c2C)cc1Cl	inconclusive: 37.9 µM [inhibitor, partial curve, poor fit]	

SMILES	Potency	activity change, negative = inhibition
CCNc1nc(NC(C)C)nc(OCCOC(=O)Nc2ccccc2)n1	inconclusive: 26.9 µM [inhibitor, partial curve, poor fit]	
CCC1CCCCN1CCCNC(=O)c1sc2nc(C)cc(C)c2c1-n1cccc1 (configuration not stated)		inactive: -0.0472%
COc1ccc(-c2noc(CN(C)C(=O)c3ccco3)n2)cc1	inconclusive: 21.3 µM [inhibitor, partial curve, poor fit]	
Cn1nnnc1SCc1csc(Nc2ccccc2)n1	inconclusive: 26.9 µM [inhibitor, single point]	
COc1cccc(C2=NOC(C(=O)N3CCc4ccccc4C3)C2)c1 (configuration not stated)	inconclusive: 21.3 µM [inhibitor, partial curve, poor fit]	
COc1ccc(NC(=O)CN2CCC3(O)CCCCC3C2c2cc(OC)ccc2OC)cc1 (configuration not stated)		inactive: 3.03%
Cc1nc2nc(NC(=O)c3ccco3)nn2c(C)c1Cl	inconclusive: 19 µM [inhibitor, partial curve]	
O=C(COc1ccc(S(=O)(=O)Nc2ccccc2)cc1)NCc1ccncc1		inactive: 1.32%
Oc1cccc(-c2nc(-c3cccs3)c(-c3cccs3)[nH]2)c1	inconclusive: 26.9 µM [inhibitor, single point]	
N/C(=N\OC(=O)c1ccc(Cl)cc1)c1[nH]ncc1Br	active: 0.135 µM	
O=C(Cc1ccccc1)N1CCCC(c2nc(-c3ccc(S(=O)(=O)N4CCCC4)cc3)no2)C1 (configuration not stated)		inactive: 5.74%
NC(=O)C1CCN(c2nc(-c3cccc(N)c3)cs2)CC1	inconclusive: 23.9 µM [inhibitor, single point]	
COc1cccc(C(=O)NC(=S)Nc2ccc(Cl)c(C(=O)O)c2)c1	inconclusive: 19 µM [inhibitor, partial curve]	
NNC(=O)CNC(=O)c1ccc(F)cc1		inactive: 0.232%
COc1cc(C)ccc1OCc1cc(C(=O)N(C)CCCN2CCOCC2)no1	active: 12 µM	
O=C(Cc1ccccc1)NNC1=NS(=O)(=O)c2ccccc21	inconclusive: 26.9 µM [inhibitor, partial curve, poor fit]	
O=[N+]([O-])c1cccc(-c2nnn(C34CC5CC(CC(C5)C3)C4)n2)c1	inconclusive: 13.5 µM [inhibitor, partial curve]	
Cc1cc(=O)[nH]c(SCc2csc(-c3ccccc3)n2)n1	inconclusive: 37.9 µM [inhibitor, partial curve, poor fit]	
Cc1ccc(CNc2ccc(-c3nc(-c4ccco4)no3)cc2[N+](=O)[O-])cc1	inconclusive: 10.7 µM [inhibitor, partial curve, poor fit]	
CCCn1nc(C(=O)OCC(=O)c2ccccc2)c2ccccc2c1=O	inconclusive: 21.3 µM [inhibitor, single point]	
COc1ccccc1NC(=O)c1ccc2c(=O)n3c(nc2c1)CCC3		inactive: -22.2%
Cc1ccc(-c2cc(C(=O)O)n(Cc3ccccc3)n2)cc1	inconclusive: 12 µM [inhibitor, partial curve, poor fit]	
Nn1c(Cc2ccccc2)nc2sc3c(c2c1=O)CCC3		inactive: -0.024%
Cc1nn(C(C)C(=O)NCCc2ccco2)c(=O)c2nn(-c3ccccc3)c(C)c12 (configuration not stated)		inactive: -0.977%

SMILES	Potency	activity change, negative = inhibition
COC(=O)[C@@]1(Cc2ccc(OC)cc2)[C@@H]2C(=CC(=O)[C@H]2CC(=O)C(=O)N(C)C)CN1C(=O)c1ccccc1		inactive: 4.2%
COCCCNc1nc2ccccc2nc1NS(=O)(=O)c1cccc(C)c1		inactive: 1.72%
COc1ccc(-c2nnn(CC(=O)N(CCCO)C(C(=O)NC3CCCC3)c3ccc(F)cc3)n2)cc1 (configuration not stated)		inactive: 1.3%
COc1ccc(-c2cc(C(=O)Nc3c(Cl)cccc3Cl)no2)cc1OC	inconclusive: 37.9 µM [inhibitor, partial curve, poor fit]	
O=C(/C=C/c1ccc(Br)cc1)NC1CCCCCC1	inconclusive: 2.69 µM [inhibitor, full curve]	
COc1ccc2c(c1)c(=O)c(S(=O)(=O)c1ccc(C)c(C)c1)cn2CC(=O)Nc1ccccc1		inactive: -0.454%
Cc1cc(C)c2nc(N3CCN(C)CC3)c(C#N)cc2c1	inconclusive: 21.3 µM [inhibitor, partial curve, poor fit]	
CCc1ccc(N2CCn3c2nc2c3c(=O)n(Cc3ccc(F)cc3)c(=O)n2C)cc1	active: 9.53 µM	
CSc1ccc(NC(=O)NCc2cccnc2)cc1	inconclusive: 33.8 µM [inhibitor, partial curve, poor fit]	
O=C(Nc1nnc(SCCN2CCOCC2)s1)C1CC(=O)N(c2ccccc2)C1 (configuration not stated)		inactive: -1.65%
COc1ccc(/C=N/NC(=O)c2ccc3c(c2)OCO3)c(C(=O)O)c1OC		inactive: -8.46%
CN(C1CCCCC1)S(=O)(=O)c1ccc(S(=O)(=O)N2CCN(C(=O)c3ccccc3F)CC2)cc1		inactive: -1.13%
CCC(C)NC(=O)c1cc(Cl)c(NC(=O)C2=C(C)OCCS2)cc1OC (configuration not stated)	inconclusive: 37.9 µM [inhibitor, partial curve, poor fit]	
CC(C)(C)c1ccc(C(=O)NCCCNC(=O)c2cccnc2)cc1	active: 16.9 µM	
CSCC[C@H](NC(=O)Cc1c(C)c2c(cc(C)c3c(C)c(C)oc32)oc1=O)C(=O)O	inconclusive: 37.9 µM [inhibitor, single point]	
COc1ccc(C(=O)CNc2ccc3ccccc3c2)cc1	inconclusive: 9.53 µM [inhibitor, partial curve]	
COc1ccc(C(=O)Nc2cccc(/C(C)=N/NC(=O)c3ccc([N+](=O)[O-])c(C)c3)c2)cc1OC	inconclusive: 37.9 µM [inhibitor, partial curve, poor fit]	
Cc1ccccc1NC(=O)c1ccccc1NC(=O)c1ccccc1Cl	inconclusive: 30.1 µM [inhibitor, single point]	
Cc1cccc(CSc2nc3ccncc3n2CC(=O)Nc2cc(C)cc(C)c2)c1	inconclusive: 3.79 µM [inhibitor, partial curve, poor fit]	
CCOc1ccc(/C=N/Nc2nc(N3CCCC3)nc(N3CCCC3)n2)cc1OC	inconclusive: 16.9 µM [inhibitor, partial curve]	
COc1cccc(CC(=O)Nc2nc(C)cs2)c1	inconclusive: 37.9 µM [inhibitor, partial curve, poor fit]	
CCOc1ccc(NC(=O)c2ccc3nccnc3c2)cc1	active: 16.9 µM	
Cc1ccc(-n2cc(S(=O)(=O)c3ccc(C)cc3)[nH]c2=O)cc1	inconclusive: 30.1 µM [inhibitor, partial curve, poor fit]	
CCOC(=O)c1c(C)n(C)c2ccc(OCC(O)Cn3nc(C)cc3C)cc12 (configuration not stated)		inactive: -1.34%
